Measurements published in PubChem BioAssay AID493208 (National Center for Advancing Translational Sciences (NCATS), 2011).
Hit rate of the full screen: of about 44,000 compounds, about 340 (0.77%) were called active. Roughly 5% stayed inconclusive and do not appear here. Calls come from the whole dose curve; as a rule, active = well fitted inhibition curve with a large enough effect; inconclusive = small, poorly fitted or top-dose-only effect; inactive = flat fitted curve, though single readings scatter. The list shows a part of the results.

Test: Acumen qHTS Assay for Inhibitors of the mTORC1 Signaling Pathway in MEF (Tsc2-/-, p53-/-) Cells: Sytravon;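 note: plate controls were DMSO for no effect and rapamycin for full effect; nearly all actives have a fitted effect of over 50% in size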
Conditions: phospho-rpS6 immunofluorescence/PI, 24 h; series mostly up to 38.3 µM; activity change, negative = inhibition: at the top concentration
Outline: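 Tsc2-/-, p53-/- MEFs (empty-vector stable line) in DMEM + 10% FBS were treated with compounds 24 h at 37 degree Celsius, fixed, and immunostained for phospho-rpS6 (Alexa-488) with propidium iodide counterstain. Laser-scanning cytometry gave % positive cells, normalized against 7.5 nM rapamycin and DMSO.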

Activity change, negative = inhibition, inactive:
COc1ccc(-c2nnc(SCC(=O)Nc3cccc(C)c3)s2)cc1 -0.982%, CCOC(=O)c1c(NC(=O)CSc2cn(CCNC(=O)c3ccc(OC)cc3)c3ccccc23)sc2c1CCC2 -12.4%, COc1ccc(NC(=O)CSc2nc(-c3ccccc3)cc(-c3cc(OC)c(OC)c(OC)c3)c2C#N)c(OC)c1 7.61%, Cc1nn(CC(=O)Nc2ccc(C(C)C)cc2)c(=O)c2c(C)n(-c3ccc(Cl)cc3)nc12 7.52%, COc1ccc(NC(=O)CSc2nccn2C2CCCC2)cc1OC -0.0379%, COc1ccc(-c2cn3nc(N4CCCC(C(=O)Nc5ccccc5F)C4)sc3n2)cc1 (stereo not given) -12%, CCOc1ccccc1N(C)C(=O)c1sc2nc3n(c(=O)c2c1C)CCCC3 5.73%, Cc1ccc(Cn2cc(S(=O)(=O)c3ccccc3)c(=O)c3cc(F)c(N4CCOCC4)cc32)cc1 -4.89%, COc1ccc(NC(=O)C(c2ccc(OC)cc2)N(C)C(=O)Cc2cccs2)cc1 (stereo not given) -18.4%, Cn1ccc2cc(S(=O)(=O)N3CCN(C(=O)Nc4cccc(F)c4)CC3)ccc21 0.554%, COc1ccccc1N1CCN(S(=O)(=O)CCNC(=O)c2cc(=O)c3ccccc3o2)CC1 -0.892%, CC(C)(Oc1ccc(Cl)cc1)C(=O)Nc1ccc(-c2nc3ncccc3o2)cc1 -15.1%, COc1ccc(C(CNC(=O)COc2cc(C)c(Cl)c(C)c2)N2CCCCC2)cc1 (stereo not given) -7.93%, Cc1ccccc1C(=O)Nc1cccc(-c2nc3cccnc3s2)c1 -5.99%, COc1ccc(Cn2ccc3nc(C)c(C(=O)Nc4ccc(OC)c(OC)c4)cc3c2=O)cc1 -2.53%, O=C(CSc1nc(=O)n(Cc2ccncc2)c2c1CCC2)Nc1ccccc1 0.382%, COc1cccc(N2CCN(C(=O)CCn3nc(C)c(S(=O)(=O)N4CCCC4)c3C)CC2)c1 -8.19%, COc1cccc(CNC(=O)CCc2c(C)c3cc4c(C)coc4cc3oc2=O)c1 3.71%, CCCN(CCC)C(=O)c1c[nH]c2ccc(S(=O)(=O)N(C)c3ccc(Cl)cc3)cc2c1=O 2.13%, COc1cccc(CNC(=O)C2CCC(CNS(=O)(=O)c3cccs3)CC2)c1 (stereo not given) -16.7%, O=c1c(S(=O)(=O)c2ccccc2)cn(Cc2ccc(F)cc2)c2cc(N3CCCC3)c(F)cc12 -6.05%, Cc1ccc(OCc2cc(=O)n3c4c(sc3n2)CCCC4)c(C)c1 -1.15%, CCCC(=O)N(c1ccc2oc3c(c2c1)CCCC3)S(=O)(=O)c1ccc(CC)cc1 -13.3%, Cc1ccccc1NC(=O)c1ccc(NC(=O)N2CCSc3ncccc32)cc1 -2.78%, COc1ccc(OC)c(-n2c(=O)[nH]c3cc(C(=O)NCCc4ccc(OC)c(OC)c4)ccc3c2=O)c1 -3.92%, COc1cccc(NC(=O)c2sc(-n3nc(C)c(Cc4ccccc4Cl)c3C)nc2C)c1 -19.3%, CC1CCN(S(=O)(=O)c2ccc3c(c2)N(CC(=O)NCc2ccccc2Cl)C(=O)CO3)CC1 -3.65%, COc1ccc(NCc2nc3ccccc3n2CCOc2ccccc2C)cc1 -13.8%, Cc1ccc(N(C)C(=O)Cn2nc(Cc3ccncc3)c3ccccc3c2=O)cc1C -3.98%, Cc1ccc(CNS(=O)(=O)c2ccc(F)c(C(=O)Nc3ccc(C)c(F)c3)c2)cc1 12.9%, COCCn1c(C)cc(O)c(C(c2ccccc2)N2CCN(c3ccc(F)cc3)CC2)c1=O (stereo not given) -0.481%, O=C(NCCS(=O)(=O)N1CCN(c2ccccc2F)CC1)c1cc(=O)c2ccccc2o1 2.11%, O=C(Nc1ccc(F)cc1)c1ccc(-n2cnc3cccnc32)cc1 0.0709%, O=C(NCCc1ccc(Cl)cc1)c1ccc(CS(=O)(=O)Cc2ccc(F)cc2)o1 -10.3%, COC(=O)c1c(SC)nc2ccccc2c1OCc1cccc(C)c1 -1%, CCC(CC)C(=O)Nc1cccc(-c2nc3cccnc3s2)c1 -1.05%, COc1cccc(COC(=O)c2nn(-c3ccccc3)nc2N)c1 -0.636%, COc1ccccc1CCNC(=O)c1cc2c(=O)n3cccc(C)c3nc2n1C -4.64%, CNC(=O)C1CCC(Cn2c(=O)c3sccc3n(Cc3ccccc3)c2=O)CC1 (stereo not given) -9.77%, Cc1csc2nc(COC(=O)c3ccccc3NC(=O)c3ccccc3Cl)cc(=O)n12 6.47%, CCc1ccc(NC(=O)N2CC=C(c3c[nH]c4ccccc34)CC2)cc1 -22.5%, CCOc1ccc(-c2nc(Cn3c(=O)cc(-c4ccccc4)c4c(C)nn(C)c43)c(C)o2)cc1OC 0.898%, COc1cc(OC)c(NC(=O)C(C)n2c(=O)cc(-c3ccccc3)c3c(C)nn(C)c32)cc1Cl (stereo not given) -13.8%, Cc1ccc(CNC(=O)C2CCN(c3nn4cc(-c5ccc(F)cc5)nc4s3)CC2)cc1 -2.52%, CCOC(=O)c1[nH]c(C)c(CCC(=O)Nc2cc(Cl)ccc2C)c1C -0.862%, COc1ccc(C(=O)NCC(c2cccnc2)N2CCc3ccccc3C2)cc1 (stereo not given) 2.47%, CCN(CC)c1ccc(NC(=O)CCS(=O)(=O)c2cccc3nsnc23)c(C)c1 -12.4%, CCSC1=NC2(CCN(C(=O)NC3CCCCC3)CC2)N=C1c1ccc(C)cc1 1.54%, Cc1cc(S(=O)(=O)Nc2cc3c(cc2C)n(C)c(=O)c(=O)n3C)ccc1F -1.48%, Cc1ccccc1NC(=O)CSc1ncc2c(n1)-c1ccccc1N(C)S2(=O)=O -2.98%, CCOc1ccccc1NC(=O)c1c(NC(=O)C(C)Oc2cccc(Cl)c2)sc2c1CCCCC2 (stereo not given) 10.3%, Cc1cc(C)c2c(n1)nn1c(C)c(CCC(=O)Nc3ccc(C)c(Cl)c3)c(C)nc21 -5.17%, Cc1cn2c(=O)cc(COC(=O)c3cccc(NC(=O)C(C)Oc4ccccc4)c3)nc2s1 (stereo not given) 6.7%, Cc1cccc(S(=O)(=O)c2cn(Cc3ccccc3)c3cc(N4CCC(C)CC4)c(F)cc3c2=O)c1 0.176%, CCn1c(Oc2ccc(F)cc2F)nc2c1c(=O)n(C)c(=O)n2C -10.9%, CCOc1ccc(CC(=O)Nc2c(C(=O)c3ccc(Cl)cc3)oc3ccccc23)cc1OCC 3.71%, CC1=C(C(=O)Nc2ccc(Cl)cc2)C(c2cccs2)n2nc(SCc3cccc(Cl)c3)nc2N1 (stereo not given) -2.3%, CCc1cc2c(cc3c(=O)n(CC(=O)NCc4cccc(Cl)c4)nc(CC)n32)s1 -3.7%, COc1cccc(CNC(=O)C(=O)NCC(c2cccs2)S(=O)(=O)c2cccs2)c1 (stereo not given) 0.0183%, COc1ccc(-n2nc3cc(C)c(NC(=O)COc4cccc(C)c4)cc3n2)cc1 2.29%
